Measured values from paper PMC4336329 (PLoS ONE, 2015).
Screen size: about 310,000 compounds; about 2,200 (0.71%) showed an effect of 50% or more. Effects have a minus sign here. This is one part of the list.

molecular target: human ether-à-go-go-related gene (hERG) potassium channel (human, UniProt Q12809); test: primary screen, population patch clamp on CHO cells stably expressing hERG
Sequence (Q12809 whole entry, looked up): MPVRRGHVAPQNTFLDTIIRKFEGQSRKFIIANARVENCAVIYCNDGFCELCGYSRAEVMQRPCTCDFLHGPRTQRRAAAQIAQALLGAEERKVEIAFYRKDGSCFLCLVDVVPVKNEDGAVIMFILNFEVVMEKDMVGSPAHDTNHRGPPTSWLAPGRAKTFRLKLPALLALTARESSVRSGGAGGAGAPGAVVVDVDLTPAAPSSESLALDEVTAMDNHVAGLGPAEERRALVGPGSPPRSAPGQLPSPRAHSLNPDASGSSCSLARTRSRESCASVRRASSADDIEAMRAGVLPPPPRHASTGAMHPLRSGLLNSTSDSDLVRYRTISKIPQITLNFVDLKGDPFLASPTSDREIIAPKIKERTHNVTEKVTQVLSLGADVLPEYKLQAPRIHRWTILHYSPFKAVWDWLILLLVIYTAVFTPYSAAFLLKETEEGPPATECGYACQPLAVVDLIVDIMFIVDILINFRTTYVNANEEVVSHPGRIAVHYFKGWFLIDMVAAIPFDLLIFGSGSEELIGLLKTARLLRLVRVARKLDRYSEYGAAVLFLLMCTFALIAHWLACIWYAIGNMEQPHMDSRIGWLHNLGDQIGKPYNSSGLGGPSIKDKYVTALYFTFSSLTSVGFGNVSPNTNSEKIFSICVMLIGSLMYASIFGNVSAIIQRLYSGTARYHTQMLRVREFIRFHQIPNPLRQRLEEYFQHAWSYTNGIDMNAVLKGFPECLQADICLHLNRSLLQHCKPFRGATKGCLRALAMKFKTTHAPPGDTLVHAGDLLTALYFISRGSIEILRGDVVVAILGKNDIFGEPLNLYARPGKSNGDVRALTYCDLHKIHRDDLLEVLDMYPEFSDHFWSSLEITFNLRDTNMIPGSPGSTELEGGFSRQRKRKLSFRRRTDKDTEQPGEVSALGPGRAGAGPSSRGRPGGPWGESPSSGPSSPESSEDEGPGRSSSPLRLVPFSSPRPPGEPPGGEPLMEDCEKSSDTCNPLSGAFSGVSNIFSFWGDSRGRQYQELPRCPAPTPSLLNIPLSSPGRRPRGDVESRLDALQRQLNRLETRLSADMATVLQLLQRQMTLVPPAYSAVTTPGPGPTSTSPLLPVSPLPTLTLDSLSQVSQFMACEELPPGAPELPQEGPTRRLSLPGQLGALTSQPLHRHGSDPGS

First: Cc1ccc(-c2cc3nc(-c4ccccc4)cc(N4CCC5(CC4)OCCO5)n3n2)cc1
Second: O=c1c2ccccc2oc2cc(-c3ccc(CN4CCOCC4)cc3)ccc12
The “hERG current change (%, negative = inhibition) at 1uM” value of the first is lower: 10.7% for the first, 14.4% for the second.

First: Clc1ccc(Oc2cnns2)c(Cl)c1
Second: COc1ccc(Cl)cc1NC(=O)CCc1ccccc1
The “hERG current change (%, negative = inhibition) at 1uM” value of the first is lower: 3.17% for the first, 12.3% for the second.

Compared with `CC(C)N1CCN(Cc2ccc3c(c2)OCCO3)CC1CCO` (stereo not drawn), `CC(C)(C)c1ccc(C2/C(=C(\O)c3ccc4c(c3)OCCO4)C(=O)C(=O)N2CCCN2CCOCC2)cc1` (stereo not drawn) is higher in “hERG current change (%, negative = inhibition) at 1uM” value: 7.42% for the first, 7.85% for the second.

Going from `O=C(Nc1nc2ccc(F)cc2s1)C1=NN(c2ccccc2)C(=O)CC1` to `Cc1ccc(CSc2nnc(NC(=O)Cn3cnc4ccccc4c3=O)s2)cc1`, the “hERG current change (%, negative = inhibition) at 1uM” value rises from 1.46% to 9.39%.

Going from `CCn1cnc2cc(NCc3ccncc3)ccc21` to `CCCCn1nnnc1NCc1ccc(C)cc1`, the “hERG current change (%, negative = inhibition) at 1uM” value rises from 10.4% to 15.1%.

Going from `CC(=NCCN1CCOCC1)c1c(O)n(-c2ccccc2C)c(=O)[nH]c1=O` to `CC1CCCCN1CCNC(=O)CN1C(=O)COc2ccccc21` (stereo not drawn), the “hERG current change (%, negative = inhibition) at 1uM” value rises from 4.13% to 12.5%.

Going from `CC(=O)Nc1cccc(NC(=O)CSc2ccc(-c3ccccn3)nn2)c1` to `CCc1ccc(-c2csc(NC(=O)c3cccnc3)n2)cc1`, the “hERG current change (%, negative = inhibition) at 1uM” value rises from 8.15% to 9.24%.

Compared with `Cc1ccc(C(=O)Nc2ncc(Cc3ccc(SC(F)F)cc3)s2)cc1`, `Cc1ccc(C(=O)c2ccc(C)cc2)cc1` is higher in “hERG current change (%, negative = inhibition) at 1uM” value: 10.8% for the first, 15.2% for the second.

First: CCC(=O)N(CCC1(c2ccccc2OC)CCOC(C(C)C)C1)Cc1ccco1 (stereo not drawn)
Second: CCOC(=O)[C@H]1[C@H]2COc3ccccc3[C@@H]2N2C(=O)c3cc(OC)ccc3NC(=O)[C@@]12C
The “hERG current change (%, negative = inhibition) at 1uM” value of the first is higher: 7.61% for the first, 5.16% for the second.

Going from `COC(=O)c1cc(OC)c(OC)cc1NC(=O)c1cc(OC)cc(OC)c1` to `COc1cc(OC)cc(C(=O)NNc2nc3cc4c(cc3s2)OCO4)c1`, the “hERG current change (%, negative = inhibition) at 1uM” value rises from 5.88% to 13.1%.

First: COc1ccc(C(=O)O)cc1F
Second: COc1cccc(C(=O)N2CCC3(CC2)OCCO3)c1
The “hERG current change (%, negative = inhibition) at 1uM” value of the first is higher: 13% for the first, 11% for the second.

Compared with `Cc1cccc(CCNC(=O)C2CCC(CNS(=O)(=O)c3cccs3)CC2)c1` (stereo not drawn), `Cc1ccc(OCCNS(=O)(=O)c2cccs2)cc1` is lower in “hERG current change (%, negative = inhibition) at 1uM” value: 11.5% for the first, 10.5% for the second.

First: COC(=O)c1c(C)[nH]c(C(=O)C(C)[N+]23CCN(CC2)CC3)c1C.[Cl-] (stereo not drawn)
Second: COC(=O)Nc1ccc(S(=O)(=O)N2CCCC(C(=O)N3CCCCC3)C2)cc1 (stereo not drawn)
The “hERG current change (%, negative = inhibition) at 1uM” value of the first is higher: 11.6% for the first, 4.74% for the second.

Going from `N/C(COc1ccccc1)=N\NC(=O)c1cccnc1Oc1ccccc1` to `CC(CNC(=O)c1cc(COc2c(F)cccc2F)on1)c1ccccc1` (stereo not drawn), the “hERG current change (%, negative = inhibition) at 1uM” value falls from 16.4% to 0.341%.

Going from `NC(=O)c1ccsc1N` to `Nc1nc(SCCO)[nH]c(=O)c1NC(=O)c1ccco1`, the “hERG current change (%, negative = inhibition) at 1uM” value rises from 12.3% to 15%.

Going from `FC(F)(F)c1cnc2c(c1)Nc1ccccc1S2` to `CNC(=O)CCCN1C(=O)c2ccccc2Sc2ncccc21`, the “hERG current change (%, negative = inhibition) at 1uM” value rises from 5.69% to 16.6%.

Going from `CCCOc1ccc(N2CC(C(=O)Nc3ccc4c(c3)OCO4)CC2=O)cc1` (stereo not drawn) to `CCCC(=O)Nc1ccc(N2CCOCC2)cc1`, the “hERG current change (%, negative = inhibition) at 1uM” value rises from 13.9% to 15.6%.

Compared with `Cc1nc2nc[nH]n2c(=O)c1NS(=O)(=O)c1ccc(F)cc1`, `Cc1nc(C)c(-c2ccc(SCc3ccc(Cl)cc3)nn2)s1` is lower in “hERG current change (%, negative = inhibition) at 1uM” value: 19.5% for the first, 10.3% for the second.

Compared with `Cc1cc(C)c(S(=O)(=O)N(C)Cc2cnn(C)c2)c(C)c1`, `Cc1ccc(OCc2cc(C(=O)N3CCc4[nH]cnc4C3c3ccccn3)no2)cc1C` (stereo not drawn) is higher in “hERG current change (%, negative = inhibition) at 1uM” value: 3.65% for the first, 6.76% for the second.

Compared with `O=C(CSc1nnc(NC(=O)c2c(F)cccc2F)s1)NC1CCCCC1`, `CCc1ccc(NC(=O)C2CCCN2C(=O)NC2CCCCC2)cc1` (stereo not drawn) is higher in “hERG current change (%, negative = inhibition) at 1uM” value: 14.1% for the first, 14.9% for the second.

First: O=[N+]([O-])c1ccc(Sc2ccccc2)nc1
Second: CC(=O)N1CCN(C(=O)c2ccc(-c3ccccc3Cl)o2)CC1
The “hERG current change (%, negative = inhibition) at 1uM” value of the first is higher: 7.5% for the first, 0.228% for the second.

Going from `O=C(OCC(=O)N1CCCC1)c1cccc(Br)c1` to `CCn1c(=O)n(CC(=O)N2CC(C)CC(C)C2)c(=O)c2ccccc21` (stereo not drawn), the “hERG current change (%, negative = inhibition) at 1uM” value falls from 5.76% to -8.48%.

For `C=CCC1(CC=C)CCCN1C(=O)Cn1nnnc1CN(C)C(C)C`, the “hERG current change (%, negative = inhibition) at 1uM” value was 16.4%.
